# Experimental data from PubChem BioAssay AID588795 (National Center for Advancing Translational Sciences (NCATS), 2011).
# The campaign covered roughly 390,000 compounds. About 1,400 (0.36%) were called active. This list was built around the results that the source calls inconclusive (neither active nor inactive); the mix of calls is not that of the screen. The call rests on the fitted dose curve; in most records, active means well fitted inhibition curve with a large enough effect; inconclusive means small, poorly fitted or top-dose-only effect; inactive means no such curve, though single readings can be large or run the other way. Potencies beside an inconclusive call are fits to weak or partial responses and may not hold up.
# Biological target: Flap endonuclease 1 (Homo sapiens) (UniProt P39748)
# Test: qHTS Assay for the Inhibitors of Human Flap endonuclease 1 (FEN1). Further: nearly all actives have a fitted effect of over 65% in size.
# Details: Recombinant FEN1 flap cleavage, fluorescence, 15 min; series mostly up to 114 µM; activity change, negative = inhibition: at the top concentration
# How it was run: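 Nuclease activity of 10 nM FEN1 was measured after 15 min of room-temperature exposure to titrated compounds, by adding 50 nM flap substrate and reading plates at 0 and 15 min.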
# On the % scale 0 is the no-effect control and ±100 the full control effect; potency means the concentration at half of the fitted maximal effect; tags describe the fitted curve by direction and shape.
# Sequence of UniProt P39748 (P39748 whole entry, looked up): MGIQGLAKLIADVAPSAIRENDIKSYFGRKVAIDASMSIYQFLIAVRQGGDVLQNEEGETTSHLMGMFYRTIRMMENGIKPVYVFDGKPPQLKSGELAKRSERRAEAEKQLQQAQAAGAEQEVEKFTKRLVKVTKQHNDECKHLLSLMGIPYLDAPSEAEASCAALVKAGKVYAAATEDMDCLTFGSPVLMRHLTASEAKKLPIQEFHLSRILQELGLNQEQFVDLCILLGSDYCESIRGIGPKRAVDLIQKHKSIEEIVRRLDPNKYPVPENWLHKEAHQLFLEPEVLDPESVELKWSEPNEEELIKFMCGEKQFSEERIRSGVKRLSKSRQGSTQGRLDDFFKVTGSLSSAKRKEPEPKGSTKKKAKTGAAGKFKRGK
SMILES,Potency,"activity change, negative = inhibition"
O=c1[nH]cc(F)c(=O)[nH]1,"inconclusive: 0.15 µM [inhibitor, full curve, poor fit]",
N/C(=N/[N+](=O)[O-])N1CCN(C(=O)Oc2ccc([N+](=O)[O-])cc2)CC1,,inactive: 7.5%
N#CC1=C(N)Oc2c(c(=O)sc3ccccc23)C1c1ccncc1 (centres undefined),,inactive: 2.11%
O=C1NC(=O)C(=Cc2ccccc2[N+](=O)[O-])C(=O)N1,,inactive: 7.62%
O=C1c2ccccc2C(Nc2ccc(S(=O)(=O)N3CCCCCC3)cc2)N1c1ccccn1 (centres undefined),"inconclusive: 89.1 µM [inhibitor, single point]",
C=CCN1C(=O)/C(=C/c2ccc(N3CCOCC3)o2)C(=O)NC1=S,,inactive: -4.48%
COc1ccccc1-n1c(O)c(/C=C2\C=Nc3ccccc32)c(=O)[nH]c1=O,"inconclusive: 17.8 µM [inhibitor, full curve, poor fit]",
CCOc1ccc2nc(N=Nc3c(O)[nH]c(=S)[nH]c3=O)sc2c1,"inconclusive: 89.1 µM [inhibitor, partial curve, poor fit]",
CN1CCC(N(C)c2nc(-c3ccccc3)nc3ccccc23)CC1,"inconclusive: 56.2 µM [inhibitor, partial curve, poor fit]",
COC(=O)C1=C(c2ccc(F)cc2F)C[C@@H]2CC[C@H]1N2C(=O)N1CCC(O)(c2ccc(Cl)cc2)CC1,"inconclusive: 39.8 µM [inhibitor, partial curve, poor fit]",
COC(=O)Cn1cc(C=C2C(=O)NC(=O)NC2=O)c2ccccc21,"inconclusive: 89.1 µM [inhibitor, partial curve, poor fit]",
O=C1NC(=O)N(Cc2ccccc2)C(=O)/C1=C/C=C/c1ccco1,"inconclusive: 63.1 µM [inhibitor, partial curve, poor fit]",
Cc1ccc2c(c1Cl)NC(C(=O)O)C1CC(Sc3ccccc3[N+](=O)[O-])C(Cl)C21 (centres undefined),"inconclusive: 56.2 µM [inhibitor, partial curve, poor fit]",
O=C1NC(=S)NC(=O)C1=Cc1ccc(OCC(=O)N2CCCC2)cc1,,inactive: -16.4%
O=C(Cc1cc(=O)oc2cc(O)ccc12)NN=Cc1ccc(N(CCCl)CCCl)cc1,active: 31.6 µM,
COc1ccc(Nc2nc(N)nc(CSc3nc4ccccc4s3)n2)cc1,"inconclusive: 31.6 µM [inhibitor, partial curve, poor fit]",
CCNC(=O)[C@H]1O[C@@H](n2cnc3c(N)ncnc32)[C@H](O)[C@@H]1O,,inactive: 2.48%
COc1ccc(/C=C2\C(=O)NC(=S)N(C)C2=O)cc1C,active: 50.1 µM,
CN(C)c1ccc(/C=C/C=C/c2sc3ccccc3[n+]2C)cc1,"inconclusive: 89.1 µM [inhibitor, single point]",
COC(=O)Cn1cc(/C=C2\C(=O)NC(=O)N(c3ccccc3)C2=O)c2ccccc21,"inconclusive: 28.2 µM [inhibitor, partial curve, poor fit]",

SMILES,Potency,"activity change, negative = inhibition"
Clc1ccc(N2CC3CCC(C2)N3)nn1,"inconclusive: 8.44 µM [inhibitor, partial curve, poor fit]",
CC1(C)COC(Nc2ccc(Cl)cc2)=N1,,inactive: -1.23%
C[C@H]1C2Cc3ccc(O)cc3[C@]1(C)CCN2CC1CC1,"inconclusive: 4.74 µM [inhibitor, single point]",
O=C(O)c1cccc2c1NC(C(=O)O)C1CC(Sc3ccccc3[N+](=O)[O-])C(Cl)C21 (centres undefined),active: 44.7 µM,
CCCNC(=O)N1[C@H]2CC[C@@H]1C(C(=O)OC)=C(c1ccc(Cl)c(C(F)(F)F)c1)C2,"inconclusive: 3.55 µM [inhibitor, partial curve, poor fit]",
O=c1c2ccccc2nc(/C=C/c2ccc(O)c(O)c2)n1-c1ccccc1,,inactive: -13.3%
Cc1ccc(Cl)cc1N1CCN(C(=O)c2cn(C)c(=O)c3c2c2ccccc2n3C)CC1,"inconclusive: 56.2 µM [inhibitor, partial curve, poor fit]",
CN1C(=O)/C(=C\c2ccc(Br)s2)C(=O)NC1=S,"inconclusive: 89.1 µM [inhibitor, single point]",
O=c1c2ccccc2nc(/C=C\c2ccccc2[N+](=O)[O-])n1-c1ccccc1O,"inconclusive: 79.4 µM [inhibitor, partial curve, poor fit]",
Cc1cc(/C=C2\C(=O)NC(=O)N(c3ccc(Br)cc3)C2=O)c(C)n1-c1cc(C(=O)O)cc(C(=O)O)c1,"inconclusive: 17.8 µM [inhibitor, full curve, poor fit]",
CCCCn1c(=O)c(C(=O)Nc2ccccc2S(N)(=O)=O)c(O)c2ccccc21,"inconclusive: 79.4 µM [inhibitor, partial curve, poor fit]",
O=C(Oc1ccc([N+](=O)[O-])cc1)N1CCN(/[N+]([O-])=N/Oc2ccc([N+](=O)[O-])cc2[N+](=O)[O-])CC1,,inactive: -20.8%
O=C1NC(=O)N(CCC2=CCCCC2)C(=O)/C1=C/c1cccs1,"inconclusive: 89.1 µM [inhibitor, partial curve, poor fit]",
NC(=O)C1CCN(/C=C2\C(=O)NC(=O)N(Cc3ccco3)C2=O)CC1,"inconclusive: 56.2 µM [inhibitor, partial curve, poor fit]",
COc1cc2nc(N3CCCN(C)CC3)nc(N(C)C3CCN(C)CC3)c2cc1OC,"inconclusive: 39.8 µM [inhibitor, partial curve, poor fit]",
CC(C)(O)[C@@H]1C2OC(=O)[C@@H]1[C@]1(O)C[C@H]3O[C@]34C(=O)O[C@H]2[C@]14C (tested in a mixture with another compound),"inconclusive: 8.44 µM [inhibitor, partial curve, poor fit]",
Cc1c2ccncc2c(C)c2c1[nH]c1ccccc12,active: 11.9 µM,
O=C1NC(=O)N(c2ccccc2)C(=O)/C1=C/C=C/c1ccco1,"inconclusive: 63.1 µM [inhibitor, partial curve, poor fit]",
Cc1c(N=Cc2c(O)n(Cc3ccccc3)c(=O)[nH]c2=O)c(=O)n(-c2ccccc2)n1C,,inactive: 7.45%
